In all, about 52,000 compounds went through this assay and about 4,300 (8.3%) were called active. Rule as the data show it: active = survival mostly below about 52% (no sharp cut-off); inactive = mostly above about 56%. This is one part of the list.

This assay deals with DeltatarO mutant. Nature of the assay: growth inhibition of S. aureus wild type versus tarO mutant, primary screen, teichoic acid synthesis inhibitors, RN4220, OD600 (AID 463173). Particulars: OD600, 18 h, active compounds read low, screened at 18.75 µg/mL (by protocol).
Turning to `Cc1ccc(-n2c3c(c(=O)[nH]c2=O)C(NC(=O)c2ccccc2F)(C(F)(F)F)C(=O)N3)cc1C` (stereo unspecified), the survival was inactive: 92%.

Regarding `CCN(CCCNC(=O)c1cc2c(=O)n(CC)c3ccccc3c2s1)c1cccc(C)c1`, the survival is active: 42%.

In the case of `Cc1ccccc1-c1nc(CS(=O)(=O)CC(=O)NC(C)c2ccccc2)c(C)o1` (stereo unspecified), the survival is inactive: 138%.

Turning to `CCc1ccc(N2CCn3c2nc2c3c(=O)n(Cc3ccc(F)cc3)c(=O)n2C)cc1`, the survival was inactive: 86%.

Take `COc1ccc2c(c1)c(=O)c(S(=O)(=O)c1ccc(C)c(C)c1)cn2CC(=O)Nc1ccccc1`: the survival was inactive: 93%.

Consider `COc1ccc(NC(=O)NC2COc3ccccc3C2)c(OC)c1` (stereo unspecified), for which the survival is inactive: 98%.

With `CC(C)c1ccc(NC(=O)C2CCN(S(=O)(=O)c3cccc4nsnc34)CC2)cc1`, the survival is inactive: 72%.

As for `O=C(Cn1ccn(-c2cccc(Cl)c2)c(=O)c1=O)NCCc1ccccc1`, the survival is inactive: 57%.

As for `Cc1c(C(=O)Nc2nc(-c3ccc(F)cc3)ns2)oc2ccc(Br)cc12`, the survival is inactive: 86%.

Turning to `O=C1OC(Nc2ccccc2C(F)(F)F)c2ccccc21` (stereo unspecified), the survival was inactive: 45%.

Turning to `O=c1cc(-c2ccccc2)nc(SCc2nc(-c3ccc(C(F)(F)F)cc3)no2)[nH]1`, the survival is inactive: 188%.

In the case of `NC(=O)CSc1nnc(-c2ccccc2)o1`, the survival was inactive: 103%.

For `COc1ccc(CNC(=O)CCc2cn(Cc3cc(C)ccc3C)c3ccccc23)cc1OC`, the survival was inactive: 71%.

As to `CC(C)(C)c1ccc(-c2nc3cc(NC(=O)c4cc5ccccc5o4)ccc3o2)cc1`, the survival is inactive: 71%.

Take `CCCOc1ccc(-c2nc3ccccc3c(=O)o2)cc1`: the survival was inactive: 64%.

As to `COc1ccc(CCNC(=O)c2ccc3c(c2)N(Cc2ccc(C)cc2)CCS3)cc1OC`, the survival was inactive: 93%.

Turning to `COCCNC(=S)N1CCN(c2ccc(S(=O)(=O)N3CCCC3)cc2)CC1`, the survival was inactive: 65%.

Turning to `CC(C)N(C(=O)CSc1nnnn1C1CCCC1)C(C)C`, the survival was inactive: 96%.

In the case of `CC1=C(C(N)=O)C(c2ccc(C(C)C)cc2)n2nc(SCc3ccccc3)nc2N1` (stereo unspecified), the survival is inactive: 75%.

`CCOc1ccc(S(=O)(=O)N(CC(=O)Nc2cccnc2)c2ccccc2)cc1`: the survival is inactive: 114%.

As for `Cc1cc(C)n2nc(SCC(=O)Nc3cc(Cl)ccc3C)nc2n1`, the survival was inactive: 63%.

Consider `COc1ccc2c(c1)cc(CNc1ccc(OC)c(OC)c1)c(=O)n2CC(=O)Nc1ccc(F)cc1`, for which the survival is inactive: 74%.

In the case of `CN(CC(=O)Nc1cccc(Cl)c1)S(=O)(=O)c1ccc2[nH]c3c(c2c1)CCCC3`, the survival is inactive: 88%.

Consider `O=S(=O)(NCC(c1ccco1)S(=O)(=O)c1ccccc1)c1ccccc1` (stereo unspecified), for which the survival is inactive: 102%.

For `Cc1c(C(=O)Nc2ccc(F)c(F)c2)oc2ccc(S(=O)(=O)N3CCCCC3)cc12`, the survival was active: 52%.

For `Cc1ccccc1Nc1ccc2noc3c2c1C(=O)c1ccccc1-3`, the survival is inactive: 79%.

In the case of `COc1ccccc1CNC(=O)CCc1c(C)c2ccc(OC)c(C)c2oc1=O`, the survival was inactive: 74%.

Take `COc1ccccc1CNC(=O)CCCCn1c(=O)c2ccccc2n(Cc2c(C)cc(C)cc2C)c1=O`: the survival is inactive: 87%.

In the case of `COc1ccc(CNC(=O)Cn2c(=O)oc3cc(S(=O)(=O)N4CCCCCC4)ccc32)cc1`, the survival was inactive: 69%.

Take `COc1ccc(N2CCN(C(=O)CCc3c(C)nc4c(-c5ccccc5)c(C)nn4c3C)CC2)cc1`: the survival was inactive: 91%.

Turning to `Cc1nc2c(C(=O)NCc3ccccc3Cl)c[nH]n2c(=O)c1Cc1cccc(Cl)c1`, the survival was active: -16%.

With `CC(NC(=O)CSc1n[nH]c(-c2ccccc2Cl)n1)c1nc2ccccc2n1C` (stereo unspecified), the survival is inactive: 117%.

Consider `Cc1c(Cl)cccc1NC(=O)CC(c1cccs1)N1Cc2ccccc2C1=O` (stereo unspecified), for which the survival was active: 32%.

`CCOc1ccc(NC(=O)CN2CCN(Cc3ccccc3)S2(=O)=O)cc1`: the survival is inactive: 91%.

Consider `COc1c(C)cc(S(=O)(=O)Nc2cccc(-c3ccc(N4CCOCC4)nn3)c2)c(C)c1C`, for which the survival is inactive: 91%.

Consider `CCOC(=O)c1cccc(NC(=O)CC(c2cc(OC)c(OC)c(OC)c2)N2Cc3ccccc3C2=O)c1` (stereo unspecified), for which the survival was inactive: 87%.

On to `CCn1c(=NC(=O)c2ccc(S(=O)(=O)N3CCCCC3)cc2)sc2cccc(OC)c21`, for which the survival is inactive: 89%.

As to `CCc1nn2c(-c3ccccc3OC)ccnc2c1-c1ccc(F)cc1`, the survival was active: 2%.

In the case of `COC(=O)c1ccc(NC(=O)CCc2c(C)nc3c(c(C)nn3-c3ccc(C)cc3)c2C)cc1`, the survival is inactive: 53%.

With `Oc1c(C(c2ccccc2F)N2CCOCC2)sc2nc(-c3ccco3)nn12` (stereo unspecified), the survival was inactive: 80%.

For `COc1ccc(CCNc2nc(-c3ccc(C)cc3)cc(C(F)F)n2)cc1OC`, the survival was inactive: 87%.

As to `Cc1cccc(NC(=O)c2oc3c(c2C)-c2[nH]ncc2CC3)c1C`, the survival was inactive: 79%.

Consider `Cc1cccc(C(=O)N2CCc3cc(CNC(=O)c4ccnn4C)ccc32)c1`, for which the survival was inactive: 77%.

As to `CCOc1ccccc1NC(=O)CN1C(=O)COc2ccc(S(=O)(=O)N3CCCCCC3)cc21`, the survival is inactive: 73%.

Turning to `COc1ccc(NC(=O)c2c(C(=O)Nc3ccccc3)sc3nc(C)cc(=O)n23)cc1`, the survival was inactive: 63%.

Turning to `CCOc1ccccc1NC(=O)Cc1coc2c(C)c(C)ccc12`, the survival was inactive: 101%.

Take `Cc1ccc(CCNC(=O)C(CC(C)C)NS(=O)(=O)c2ccc3c(c2)oc(=O)n3C)cc1` (stereo unspecified): the survival is inactive: 93%.

As to `COc1ccc(-c2cc(C(F)(F)F)nc(SCC(=O)NN3CCN(C)CC3)n2)cc1`, the survival is inactive: 70%.

Take `CCCCN(C)CCCNC(=O)CN1C(=O)COc2ccc(S(=O)(=O)N3CCC(C)CC3)cc21`: the survival is inactive: 98%.

Regarding `CCOC(=O)N1CCc2c(sc(NCc3sccc3C)c2C(=O)Nc2cc(OC)ccc2OC)C1`, the survival is inactive: 91%.

For the compound `COc1cccc(NC(=O)CSc2cc(=O)n(C)c3ccc(Cl)cc23)c1`, the survival is inactive: 85%.

Take `Cc1cc(=O)[nH]c2nnc(SCc3ccc(Cl)c(Cl)c3)n12`: the survival is inactive: 97%.

For the compound `CCCCNC(=O)C1CCN(C(=O)N2CC(C)Oc3ccc(Cl)cc32)CC1` (stereo unspecified), the survival was inactive: 65%.

Take `CCOc1ccccc1-n1c(C)nc2cc(C(=O)O)ccc21`: the survival was inactive: 103%.

`CCCCN(C)CCCNC(=O)c1cc(=O)[nH]c2ccc(S(=O)(=O)N3CCCCC3)cc12`: the survival is inactive: 77%.

Regarding `CC(=O)N1c2ccc(S(=O)(=O)NCC3CCC(C(=O)Nc4ccccc4C)CC3)cc2CC1C` (stereo unspecified), the survival is inactive: 104%.

The values above are taken from PubChem BioAssay AID463173 (ICCB-Longwood Screening Facility, Harvard Medical School, 2010).
